Assay results: the antibiotic and cytotoxicity screens of Wong et al. (2023)
The other results are listed elsewhere or left out.

Assays:
[1] = tested on: HSkMC (human skeletal muscle cells); assay: cytotoxicity call (relative viability < 0.9); details: 10 µM
[2] = tested on: HepG2; assay: cytotoxicity call (relative viability < 0.9); details: 10 µM
[3] = tested on: S. aureus RN4220; assay: growth inhibition call (relative growth <= 0.2); details: 50 µM

Q: Which cytotoxicity call [1] does the source give for `C[C@H]1CN([C@@H](C)CO)C(=O)Cc2cc(NS(=O)(=O)c3cccs3)ccc2O[C@@H]1CN(C)S(C)(=O)=O` here?
A: inactive

Q: And the cytotoxicity call [2]?
A: inactive

Q: What about the growth inhibition call [3] of the same compound?
A: inactive

Q: `COc1ccc(CN(C)C[C@H]2Oc3ccc(NC(=O)Nc4ccc(C(F)(F)F)cc4)cc3CC(=O)N([C@@H](C)CO)C[C@H]2C)cc1` was tested. Which cytotoxicity call [1] did it give?
A: active

Q: And the cytotoxicity call [2]?
A: active

Q: And the growth inhibition call [3]?
A: inactive

Q: Which cytotoxicity call [1] does the source give for `COC[C@H]1CNN1C(=O)Nc1c(C)noc1C` here?
A: inactive

Q: What about the cytotoxicity call [2] of the same compound?
A: inactive

Q: What about the growth inhibition call [3] of the same compound?
A: inactive

Q: With `C[C@H]1CCCCN1C(=O)CCS(=O)(=O)c1ccc2c(c1)n(C)c(=O)c(=O)n2C` as the compound, how does the cytotoxicity call [1] read?
A: inactive

Q: And the cytotoxicity call [2]?
A: inactive

Q: What about the growth inhibition call [3] of the same compound?
A: inactive

Q: `COc1ccc(NC(=O)Nc2ccc3c(c2)CC(=O)N([C@@H](C)CO)C[C@H](C)[C@@H](CN(C)Cc2ccc(Cl)c(Cl)c2)O3)cc1` was tested. Which cytotoxicity call [1] did it give?
A: inactive

Q: What about the cytotoxicity call [2] of the same compound?
A: active

Q: And the growth inhibition call [3]?
A: inactive

Q: Which cytotoxicity call [1] does the source give for `CO[C@H]1CN(C)C(=O)c2cc(NS(=O)(=O)CC(F)(F)F)ccc2OC[C@@H](C)N(Cc2cccnc2)C[C@@H]1C` here?
A: inactive

Q: And the cytotoxicity call [2]?
A: inactive

Q: And the growth inhibition call [3]?
A: inactive

Q: `COc1ccc2c3c(n(c2c1)C)[C@@H](CO)N(C[C@]13CCN(CC1)C(=O)c1cnccn1)C(=O)c1cnccn1` was tested. Which cytotoxicity call [1] did it give?
A: inactive

Q: And the cytotoxicity call [2]?
A: inactive

Q: And the growth inhibition call [3]?
A: inactive

Q: With `C[C@@H]1CN([C@@H](C)CO)C(=O)Cc2cc(NC(=O)Nc3ccc(C(F)(F)F)cc3)ccc2O[C@@H]1CN(C)Cc1ccc(C(=O)O)cc1` as the compound, how does the cytotoxicity call [1] read?
A: inactive

Q: What about the cytotoxicity call [2] of the same compound?
A: inactive

Q: What about the growth inhibition call [3] of the same compound?
A: inactive
